The record followed here is ChEMBL document CHEMBL4888484, “Replenishing the malaria drug discovery pipeline: Screening and hit evaluation of the MMV Hit Generation Library 1 (HGL1) against asexual blood stage Plasmodium falciparum ,using a nano luciferase reporter read-out” (2022).

The assay deals with Plasmodium falciparum. The experiment in a line: Primary screen in NF54 nanoGlo assay, in single point, at 2uM, 72h; a lower Z score goes with more inhibition. The note with it: timepoint 72 hour. The format is functional, Erythrocyte.

“And” between values parts separate entries of the source, which are not always exact repeats. Identical values can stand only once. Screen size: about 150,000 compounds; about 540 (0.36%) showed an effect of 50% or more. Some of the results follow.

For the molecule `CCC1CN2CCCC2CN1Cc1ccc(OC)nn1` (stereo unspecified), the “% Inhibition” value is given as -4% and the Z score is 0.61.

With `CC(Cc1ccc(O)cc1)N(C)C[C@@H](O)c1ccccc1` (stereo partly specified), the “% Inhibition” value was -20% and the Z score is recorded as 2.6.

Take `Cc1ccccc1Nc1nnc(CC(=O)N2CCN(Cc3ccccc3)CC2)s1`: the “% Inhibition” value is -6% and the Z score was found to be 0.64.

As for `CC(Cc1ccno1)NCC(C)(O)C(=O)OC(C)(C)C` (stereo unspecified), the “% Inhibition” value amounted to 16% and the Z score is -2.05.

As for `C[C@@H](Cc1ccccc1F)NCc1nnc2ccccn12`, the “% Inhibition” value is recorded as -5% and the Z score worked out at 1.01.

`O=C(C1CC1c1cccc2ccccc12)N1CCC2(CC1)OCCO2` (stereo unspecified): the “% Inhibition” value is 3% and the Z score is recorded as -0.31.

For the molecule `CC(C)N1C2CCC1CN(c1ccc3nccnc3n1)CC2` (stereo unspecified), the “% Inhibition” value is on record as -11% and the Z score is reported as 1.65.

For `Cc1ccc(N2C[C@@H](c3nc(-c4ccc5c(c4)oc(=O)n5C(C)C)no3)CC2=O)cc1`, the “% Inhibition” value is -7% and the Z score worked out at 0.65.

As to `c1ccc(CCN(Cc2ccccc2)Cc2cccnc2)cc1`, the “% Inhibition” value is given as -10% and the Z score is reported as 1.38.

Take `COC1(Cc2nc([C@@H]3CN4CCN3CC4)no2)CCC1`: the “% Inhibition” value is -4% and the Z score is given as 0.74.

In the case of `CCC1CN(CC=C(C)C)CC2(CCOC2)O1` (stereo unspecified), the “% Inhibition” value came to 1% and the Z score is given as -0.1.

Consider `Oc1ccc([C@H]2N(n3cnnc3)C2(Cl)Cl)c(O)c1`, for which the “% Inhibition” value is 12% and the Z score was -1.55.

For the molecule `CCC(=O)N1CCC(N2C[C@H](OC)[C@@H]2c2cccnc2)CC1`, the “% Inhibition” value was -12% and the Z score is listed as 1.39.

As to `CC(C)c1noc(N2C[C@@H]3OCCN(C)[C@@H]3C2)n1`, the “% Inhibition” value is -7% and the Z score was determined as 1.42.

Take `Cc1ccccc1-n1c(O)c(Cc2c(Cl)cccc2Cl)c(O)nc1=O`: the “% Inhibition” value (2 µM) was -9% and -4% and 1%.

Regarding `Cc1c(C)[n+]([O-])c([C@@H](c2cccc(O)c2)C2C(=O)N(C)C(=O)N(C)C2=O)n1Cc1ccccc1`, the “% Inhibition” value is listed as -7% and the Z score stood at 0.83.

On to `O=C(Nc1ccc2n(c1=O)C[C@H]1C[C@@H]2CN(Cc2ccc(F)cc2)C1)c1ccncc1`, for which the “% Inhibition” value was 13% and the Z score is recorded as -1.62.

Turning to `Cn1c(=O)n(CC(=O)N2CCC[C@H](c3n[nH]c(=O)o3)C2)c2ccccc21`, the “% Inhibition” value is given as -10% and the Z score is given as 1.12.

Turning to `COc1ccc(C(=O)N(c2cc(C)cc(C)c2)C2(C(=O)NCc3ccccc3)CCN(C(C)=O)CC2)cc1`, the “% Inhibition” value was -11% and the Z score turned out to be 1.55.

`O[C@H]1COCCN(Cc2cccnc2)C1`: the “% Inhibition” value is reported as -8% and the Z score is 1.3.

With `C[C@@H](Cn1cnc2c(cnn2C)c1=O)NCc1ccccc1`, the “% Inhibition” value is -2% and the Z score amounted to 0.38.

`CC(C)(C)c1nn(Cc2nc(-c3cccs3)no2)c(=O)o1`: the “% Inhibition” value is recorded as 10% and the Z score is recorded as -2.

For `Cc1nc(N)sc1CC(=O)N1CCN(CCCCO)CC1`, the “% Inhibition” value was -6% and the Z score is 0.75.

Turning to `O=C(NCc1ccc(CO)c(F)c1)N1CCC(Nc2ccccc2F)CC1`, the “% Inhibition” value is listed as -12% and the Z score is recorded as 1.53.

In the case of `CCN1CC[C@@]2(CCC1=O)CN(C(=O)Cc1ccsc1)CCN2C`, the “% Inhibition” value is listed as -17% and the Z score was found to be 1.68.

In the case of `CCCc1nc(CN[C@@H](C)Cn2cc(C)cn2)no1`, the “% Inhibition” value is given as -4% and the Z score stood at 0.54.

Turning to `COc1ccc(Cl)cc1NCC(=O)N1CCC2(CC1)OCCO2`, the “% Inhibition” value is on record as -14% and the Z score amounted to 2.71.

Take `CC(=O)N[C@H]1C[C@H]2CN(Cc3cccnc3)[C@@H](C)C(=O)N2C1`: the “% Inhibition” value is reported as -21% and the Z score is 1.81.

For the molecule `COc1ccc(-c2cn(C[C@H]3C[C@@H]4CCN3C[C@@H]4C(=O)NCc3ccccc3)nn2)cc1`, the “% Inhibition” value amounted to 32% and the Z score was -3.59.

For `Cc1noc(C)c1C(=O)N1C2CCC1c1cncnc1C2` (stereo unspecified), the “% Inhibition” value is given as -5% and the Z score was found to be 0.68.

For the molecule `CC(C)NC(=O)N1C[C@@H]2C[C@H](C1)c1c(-c3cncnc3)ccc(=O)n1C2`, the “% Inhibition” value is on record as 31% and the Z score is -3.45.

For the molecule `C[C@]1(c2ccccc2Cl)NC(=O)N(CC(=O)Nc2ccc(Cl)cc2C(=O)c2ccccc2)C1=O`, the “% Inhibition” value is given as -1% and the Z score worked out at 0.1.

Consider `COc1cccc([C@H]2CN(C(=O)c3cccnc3C)[C@@H]3C4CCN(CC4)[C@H]23)c1`, for which the “% Inhibition” value is -9% and the Z score stood at 1.67.

For `Cn1ncc2c(=O)[nH]c(CN3CCC4CCCCC43)nc21` (stereo unspecified), the “% Inhibition” value was -2% and the Z score is 0.29.

Take `CN1[C@@H]2CCC[C@H]1c1c(nc(N)c(C#N)c1-c1cccc(OCCO)c1)C2`: the “% Inhibition” value was -15% and the Z score came to 2.26.

Take `Cn1nc(C2CCCCC2)cc1NC(=O)CC1CC2CCC(C1)N2` (stereo unspecified): the “% Inhibition” value was -7% and the Z score was found to be 0.67.

As to `C=CCNC(=O)c1c(COc2ccc(C)cc2)n(Cc2ccccn2)c(C)cc1=O`, the “% Inhibition” value is 12% and the Z score is -1.71.

As to `C[C@H](NC(=O)c1cccc2oc(=O)[nH]c12)C1(S(C)(=O)=O)CC1`, the “% Inhibition” value worked out at 8% and the Z score is given as -1.06.

Take `Cc1nc(-c2ccccc2)nc2c1CC(=O)N2CCN1CCCCC1`: the “% Inhibition” value is recorded as -13% and the Z score is on record as 1.88.

On to `OCC(CO)N1CC[C@@H]2OCc3cnnn3[C@H]2C1`, for which the “% Inhibition” value was -8% and the Z score is reported as 1.24.

As for `O=C(COc1ccc(Cl)cc1)N1CCCN(C2CCC2)CC1`, the “% Inhibition” value is reported as -24% and the Z score is reported as 4.15.

Consider `O=C(c1cnccn1)N1C[C@@H](c2cccc(F)c2F)[C@@H]2[C@H]1C1CCN2CC1`, for which the “% Inhibition” value is -13% and the Z score worked out at 2.42.

For the molecule `COc1ccc(C)cc1C[C@H]1CCCN1`, the “% Inhibition” value was -38% and the Z score worked out at 4.48.

For the molecule `Cc1ccc(OCc2c(C(=O)NC[C@H]3C[C@@H]4C=C[C@H]3C4)c(=O)cc(C)n2CCN2CCOCC2)cc1`, the “% Inhibition” value is recorded as -9% and the Z score is recorded as 1.11.

In the case of `CC(C)CN(CC(C)C)S(=O)(=O)N1CCC(C(=O)N2CCC3(CC2)OCCO3)CC1`, the “% Inhibition” value is -13% and the Z score was determined as 2.2.

For the molecule `CCOc1ccc(N2C(=O)NC(=O)C(CCc3ccncc3)(CCc3ccncc3)C2=O)cc1`, the “% Inhibition” value came out at 0% and the Z score is on record as -0.03.

Turning to `COCCC(=O)Nc1ccc2n(c1=O)C[C@H]1C[C@@H]2CN(Cc2ccc(F)cc2)C1`, the “% Inhibition” value is given as -3% and the Z score came out at 0.51.

Regarding `Cc1ncc2c(n1)C[C@@H]1CC[C@H]2N1C(=O)COc1ccccc1`, the “% Inhibition” value was -8% and the Z score was 1.18.

`C=C1C2CC3(C[C@H]4C5C6(C3CC2=O)C4[N+]([O-])(CC)C[C@]5(C)CC[C@@H]6O)[C@@H]1O` (stereo partly specified): the “% Inhibition” value was -6% and the Z score was 1.11.

As for `CCCCc1nc(CN2CCC[C@H](C(=O)c3cccc(Cl)c3)C2)c[nH]1`, the “% Inhibition” value turned out to be 5% and the Z score is -0.69.

Consider `O=C(NCc1cncc(O)c1)C1NCCC2CCCCC21` (stereo unspecified), for which the “% Inhibition” value is recorded as 6% and the Z score is -0.88.

The % Inhibition is the drop in the measured response relative to a control, in per cent.
